Out of some 360,000 compounds screened, about 6,000 (1.7%) were called active. Inconclusive results, whose numbers are uncertain, are shown with a selection of clear calls. The call rests on the fitted dose curve; in most records, active means well fitted cell-killing curve with a large enough effect; inconclusive means small, poorly fitted or top-dose-only effect, or effect the other way; inactive means flat fitted curve, though single readings scatter. Potencies of inconclusive entries are left out as doubtful fits.
Experiment: qHTS for induction of synthetic lethality in tumor cells producing 2HG: qHTS for the HT-1080-NT fibrosarcoma cell line;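 further: NT is the 2HG producing partner of a matched IDH1 knockdown line; nearly all actives have a fitted effect of over 55% in size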;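 on activity, negative = less viability: 0% = DMSO-treated cells and -100% = media-only wells without cells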
Conditions: HT-1080-NT fibrosarcoma viability, CellTiter-Glo ATP luminescence, 48 h; activity, negative = less viability: at 46.1 µM (top of the series) unless noted
In short: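 HT-1080-NT fibrosarcoma cells (2HG-overproducing), 750 cells/well in RPMI with 5% FBS, dosed after 2 h and incubated 48 h at 37C. CellTiter-Glo luminescence normalized to DMSO and no-cell wells; concentration-response curves fitted and classed.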
For CSc1ccc(NC(=O)C2(C)CCN2C(=O)c2ccccc2CCc2ccccc2)cc1 (configuration not stated), the Potency was “inactive”.
In the case of CC(=O)NC1(C(=O)O)CCCC1, the Potency is reported as inconclusive [rising, single point].
For OC(Cc1cccc(Br)c1)c1ncc(-c2ccccc2C(F)(F)F)[nH]1 (configuration not stated), the Potency was inconclusive [cytotoxic, single point].
With CCCC(=O)NC(c1ccc(Cl)cc1Cl)c1ccc2cccnc2c1O (configuration not stated) the Potency was inconclusive [cytotoxic, full curve].
In the case of Cc1cnc(C(=O)Nc2cccc3cccnc23)cn1, the activity, negative = less viability is reported as inconclusive: -35.1% [cytotoxic].
With Cc1cc(NC(=O)CSc2nc3ccccc3c(=O)n2C2CCCC2)no1 the Potency was inconclusive [cytotoxic, full curve].
With COCCSc1nnc(NC(=O)CCS(=O)(=O)c2ccccc2)s1 the Potency was inconclusive [cytotoxic, partial curve].
In the case of CCOC(=O)N1C(=O)[C@@](c2ccc(Cl)cc2)(C(C)C)N1C(=O)OCC, the Potency is reported as inconclusive [cytotoxic, single point].
In the case of C[C@@H](C(=O)NCc1ccccn1)[C@@H]1C[C@@]1(C)[C@@H](NC(=O)OCc1ccccc1)c1ccccc1, the Potency is reported as “inactive”.
With Cc1cc(N2CCN(C(=O)c3ccco3)CC2)n2nc(-c3cccc(Cl)c3)cc2n1 the Potency was inconclusive [cytotoxic, single point].
With O=C(O)CCSc1nnc(-c2ccccc2)n1-c1ccccc1 the activity, negative = less viability was inconclusive: 16.5%.
In the case of CCOC(=O)/C(=N\Nc1cc(Cl)ccc1Cl)N1CCN(CC)CC1, the Potency is reported as inconclusive [cytotoxic, partial curve].
In the case of CC(C)(C)N(Cc1ccccc1)C(=O)CSc1nc2ccccc2c(=O)[nH]1, the Potency is reported as inconclusive [cytotoxic, partial curve].
With CC(=O)N(C(C)=O)n1c(/C=C/c2ccc([N+](=O)[O-])cc2)nc2ccccc2c1=O the Potency was inconclusive [cytotoxic, single point].
In the case of Cc1ccccc1Nc1nc(Nc2ccccc2C)nc(SC2=NCCS2)n1, the Potency is reported as inconclusive [cytotoxic, single point].
With OC[C@H]1O[C@@H](n2cnc3c(NC4CCCC4)ncnc32)[C@H](O)[C@@H]1O the Potency was inconclusive [cytotoxic, single point].
For O=C(Nc1cc(Cl)ccc1N1CCOCC1)c1ccc(N2CCCCC2)c([N+](=O)[O-])c1, the Potency was “inactive”.
In the case of O=C(CCNS(=O)(=O)c1ccc(Br)cc1)NCCc1ccc(Cl)cc1, the Potency is reported as inconclusive [cytotoxic, single point].
With COc1ccccc1NC(=O)c1cc(Cl)nnc1Cl the Potency was inconclusive [cytotoxic, single point].
With COc1ccc(NC(=O)COc2ccccc2)cc1NC(=O)c1ccco1 the Potency was “inactive”.
With Cc1ccccc1C(=O)NNC(=S)Nc1cccc(C(F)(F)F)c1 the Potency was inconclusive [cytotoxic, single point].
With CC(CN1CCCCC1)OC(=O)COc1ccc(Cl)cc1 (configuration not stated) the Potency was “inactive”.
In the case of CCOC(=O)[C@]12CCC=C1N(Cc1ccc(Cl)cc1Cl)C(=O)[C@H](CC(=O)NCC1CCCCC1)C2, the Potency is reported as inconclusive [cytotoxic, partial curve].
In the case of CCc1ccc2[nH]c(=O)c(CN(CCN(CC)CC)C(=O)NC3CCCCC3)cc2c1, the Potency is reported as active: 16.4 µM.
In the case of COc1ccc(CCNc2ccc(C(CC(N)=O)NC(=O)c3ccc(Br)cc3)cc2[N+](=O)[O-])cc1 (configuration not stated), the Potency is reported as inconclusive [cytotoxic, single point].
For CC(C)CCNC(=O)C1CCN(Cc2cccc(OCc3ccccc3)c2)CC1, the Potency was inconclusive [cytotoxic, single point].
In the case of CCn1c(/C=C/N(C)c2ccccc2)[n+](CC)c2ccc(Cl)cc21, the Potency is reported as active: 7.08 µM.
With CC1CCCN(C(=O)c2ccc3c(=O)n(Cc4ccc5c(c4)OCO5)c(=S)[nH]c3c2)C1 (configuration not stated) the Potency was inconclusive [cytotoxic, single point].
For CC(C)c1ccc(NC(=O)CCC(=O)NCc2ccco2)cc1, the Potency was inconclusive [cytotoxic, partial curve].
In the case of COc1ccc2nc(NC(=O)Nc3cccc4ccccc34)sc2c1, the Potency is reported as inconclusive [cytotoxic, single point].
With O=C(N/N=C/c1ccc(Cl)cc1)c1n[nH]c2c1CCCC2 the Potency was active: 0.411 µM.
For Nn1c(-c2ccccc2)nc2cc(Cl)ccc2c1=O, the Potency was “inactive”.
For CCn1c(/C=C/c2ccccc2)nc2ccccc21, the Potency was inconclusive [cytotoxic, single point].
With CCS(=O)(=O)Nc1cccc(C2=NN(C(=O)c3ccco3)C(c3ccco3)C2)c1 (configuration not stated) the Potency was inconclusive [cytotoxic, full curve].
For COc1ccccc1OCCC(=O)Nc1nc(C)cs1, the Potency was inconclusive [rising, partial curve].
For CCCNC(=S)NC1CCCC1, the Potency was inconclusive [cytotoxic, single point].
For O=C(CCCn1c(SCC(=O)c2ccc(Cl)cc2)nc2ccccc2c1=O)NCc1ccco1, the Potency was inconclusive [cytotoxic, single point].
For c1ccc(N(c2ccccc2)c2nc(N3CCCC3)nc(-n3ccnc3)n2)cc1, the activity, negative = less viability was inconclusive: 2.72% [cytotoxic].
For Cc1cccc(C)c1NC(=O)CN(C)C(=O)CCC(=O)c1ccccc1, the Potency was “inactive”.
For C/C(=N\S(=O)(=O)c1ccc(C)cc1)N(C)C, the activity, negative = less viability was inconclusive: -13.4% [cytotoxic].
For CO/N=C(/C)CCS(=O)(=O)c1ccccc1, the Potency was “inactive”.
In the case of CCOC(=O)c1oc2cc(O)cc(O)c2c(=O)c1OCc1ccccc1, the Potency is reported as “inactive”.
With O=C1c2ccccc2-c2n[nH]c(=O)c3ccc(N4CCCCC4)c1c23 the Potency was inconclusive [cytotoxic, partial curve].
For C[N+](C)(C)CC=O, the Potency was inconclusive [rising, partial curve].
For Cc1[nH]c2ccccc2c1/C=N/NC(=O)c1cc(-c2ccncc2)nc2ccccc12, the Potency was inconclusive [cytotoxic, full curve].
In the case of CCc1ccc(CN2CCC(Oc3cc(C(=O)NC4CC4)ccc3OC)CC2)cc1, the Potency is reported as “inactive”.
With O=[N+]([O-])c1ccc(Cl)c(/C=N/n2c(COc3ccccc3)n[nH]c2=S)c1 the Potency was inconclusive [cytotoxic, full curve].
With CCOC(=O)c1c(NC(=O)CSc2nc(C)cc(C)c2C#N)sc(C(C)=O)c1C the Potency was inconclusive [cytotoxic, single point].
For COc1ccc(C2C(C#N)=C(N)Oc3cc(N)ccc32)cc1OC (configuration not stated), the Potency was inconclusive [cytotoxic, partial curve].
In the case of CCCc1cc(-c2n[nH]c(C)c2-c2ccc(C(=O)OCC)o2)c(O)cc1O, the Potency is reported as inconclusive [cytotoxic, single point].
With COc1cc(C2c3cc4c(cc3OC(NCc3ccccc3)C2C)OCO4)cc(OC)c1OC (configuration not stated) the Potency was active: 1.64 µM.
For CC(c1nc2ccccc2n1Cc1ccccc1)n1c(-c2cnccn2)nc2ccccc21 (configuration not stated), the Potency was inconclusive [cytotoxic, single point].
For Cc1ccc(NC(=O)CN(c2ccc(Cl)cc2)S(=O)(=O)c2cc([N+](=O)[O-])ccc2Cl)cc1, the Potency was “inactive”.
With CCN(CC)CCCn1c2c(c(SCC(=O)Nc3nc4ccccc4s3)nc1=O)CCC2 the Potency was “inactive”.
In the case of COc1ccc(/C=N/Nc2cc(N3CCCC3)nc(N3CCCC3)n2)cc1, the Potency is reported as active: 13 µM.
With C=CCn1c(=N)n(CC(=O)c2cccc([N+](=O)[O-])c2)c2ccccc21 the Potency was “inactive”.
For COc1cc(C2C3=C(CC(C)(C)CC3=O)Nc3ccccc3N2C(C)=O)cc(OC)c1OC (configuration not stated), the Potency was “inactive”.
In the case of Cc1ccc(NC(=O)/C=C/c2cccc([N+](=O)[O-])c2)nc1, the Potency is reported as inconclusive [rising, partial curve, poor fit].
In the case of CC(=O)C1=CCC(c2cccc3ccccc23)N(S(=O)(=O)c2ccc(C)cc2)C1 (configuration not stated), the Potency is reported as inconclusive [cytotoxic, single point].
In the case of CCN1CCCC1CNC(=O)c1ccc(N2CCOCC2)c(NS(=O)(=O)c2ccc(OC)cc2)c1 (configuration not stated), the Potency is reported as “inactive”.
For CC(=O)Nc1ccc(N2C(C(C)=O)=NN(c3ccc(Cl)cc3)C2c2sccc2C)cc1 (configuration not stated), the Potency was inconclusive [cytotoxic, single point].
In the case of Cc1cc(C)nc(S/C=C/C(=O)c2ccccc2F)n1, the Potency is reported as active: 3.66 µM.
For c1ccc(-c2nnc(CN3CCCCC3)o2)cc1, the Potency was “inactive”.
In the case of O=C(N/N=C/c1cc(Br)ccc1O)C(=O)Nc1ccccc1OC(F)(F)C(F)F, the Potency is reported as active: 1.41 µM.
With CCN(CC)CCn1c2ccc(Cl)cc2c2nc(C)sc21 the Potency was active: 28.2 µM.
In the case of CCOC(=O)c1cnn(-c2ccc(Cl)cc2)c1C1CCN(C(=O)OC(C)(C)C)CC1, the Potency is reported as inconclusive [cytotoxic, single point].
With O=c1oc2ccccc2cc1-c1csc(Nc2ccc(O)cc2)n1 the Potency was active: 14.6 µM.
With CC(C)C(=O)Nc1c(O)c2ccccc2[nH]c1=O the Potency was inconclusive [rising, single point].
In the case of O=C(Cn1ncc2c1-c1ccccc1OC2)N1CCN(Cc2ccc3c(c2)OCO3)CC1, the Potency is reported as “inactive”.
In the case of c1ccc(N2CCN(c3nc(NCc4ccco4)c4ccccc4n3)CC2)cc1, the Potency is reported as active: 16.4 µM.
For O=C(C=Cc1cccc(Cl)c1)c1ccccc1, the Potency was inconclusive [cytotoxic, single point].
For S=C(NCC1CCCO1)N1CCN(c2nc(-c3ccc(Cl)cc3)cs2)CC1 (configuration not stated), the Potency was inconclusive [cytotoxic, partial curve].
Potency means the concentration at half of the fitted maximal effect; tags describe the fitted curve by direction and shape.
